The values that follow come from article PMC2364705.

One may read the Kd as a measure of binding affinity in units of concentration. The term stoichiometry N denotes the number of molecules, sites or subunits per partner or assembly.

For this experiment, the target named is microtubules (MTs) assembled from purified tubulin. The experiment is described as follows: co-sedimentation.

As for “His-FH1FH2mDia2, wild type ([…]) (a stretch of the chain, sequence not shown) (domain or fragment)”, the Kd was 6.1 µM. In addition, the stoichiometry N (scale: tubulin per mDia2) amounted to 4.7.
